Measured values taken from the BET-seq Pho4 binding data (Le et al. 2018).
This is one part of the list. The energies were worked out here from pooled read counts, against the library average; single values are noisy.

Molecular target: T1, Pho4 (S. cerevisiae) (UniProt P07270)
T1 sequence: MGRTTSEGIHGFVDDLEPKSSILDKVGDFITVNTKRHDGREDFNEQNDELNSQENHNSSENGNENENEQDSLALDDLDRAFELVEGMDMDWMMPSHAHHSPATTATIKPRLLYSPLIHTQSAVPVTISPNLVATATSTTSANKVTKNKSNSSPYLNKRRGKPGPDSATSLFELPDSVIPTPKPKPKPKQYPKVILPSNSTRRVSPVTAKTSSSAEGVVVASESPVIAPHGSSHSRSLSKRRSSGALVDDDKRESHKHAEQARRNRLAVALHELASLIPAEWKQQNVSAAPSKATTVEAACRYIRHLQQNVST
Experiment: relative binding free energy (BET-seq); higher = weaker binding
Conditions: reference: library average

Q: Which “relative binding free energy” value does the source give for AGGATCACGTGTAGGG here?
A: 0.21 kcal/mol

Q: AGGAACACGTGTGATT was tested. Which “relative binding free energy” value did it give?
A: 0.1 kcal/mol

Q: CTTTGCACGTGGCTGG was tested. Which “relative binding free energy” value did it give?
A: -0.13 kcal/mol

Q: How did the “relative binding free energy” value turn out when TTTTCCACGTGTGCGG was run?
A: 0.07 kcal/mol

Q: For GTTATCACGTGGCGTG, which “relative binding free energy” value is on record?
A: 0.07 kcal/mol

Q: How did the “relative binding free energy” value turn out when AATGACACGTGTTGTA was run?
A: 0.11 kcal/mol

Q: How did the “relative binding free energy” value turn out when TGAGTCACGTGGTTGA was run?
A: 0.06 kcal/mol

Q: For TCTAACACGTGTTTTG, which “relative binding free energy” value is on record?
A: -0.1 kcal/mol

Q: How did the “relative binding free energy” value turn out when TATGACACGTGATTAT was run?
A: 0.06 kcal/mol

Q: Which “relative binding free energy” value does the source give for TGAGTCACGTGAGTTG here?
A: 0.31 kcal/mol

Q: For GATGGCACGTGTATAT, which “relative binding free energy” value is on record?
A: -0.11 kcal/mol

Q: For TAGGTCACGTGTAGGT, which “relative binding free energy” value is on record?
A: 0.13 kcal/mol

Q: For ATGAGCACGTGTGCGG, which “relative binding free energy” value is on record?
A: -0.24 kcal/mol

Q: With GTGGCCACGTGGCTTT as the sequence, how does the “relative binding free energy” value read?
A: -0.04 kcal/mol

Q: TGAATCACGTGATGAG was tested. Which “relative binding free energy” value did it give?
A: 0.27 kcal/mol

Q: How did the “relative binding free energy” value turn out when AATTGCACGTGGGCGT was run?
A: -0.2 kcal/mol

Q: Which “relative binding free energy” value does the source give for GCGGCCACGTGGGTTT here?
A: -0.08 kcal/mol

Q: For GTGCACACGTGTTGTA, which “relative binding free energy” value is on record?
A: 0.02 kcal/mol

Q: TTTCTCACGTGAGATT was tested. Which “relative binding free energy” value did it give?
A: 0.48 kcal/mol

Q: How did the “relative binding free energy” value turn out when GTGGGCACGTGTTCTA was run?
A: -0.17 kcal/mol

Q: GTGGACACGTGTGTGG was tested. Which “relative binding free energy” value did it give?
A: 0.03 kcal/mol

Q: With TGGATCACGTGTAGCA as the sequence, how does the “relative binding free energy” value read?
A: 0.21 kcal/mol

Q: Which “relative binding free energy” value does the source give for TGTATCACGTGTGATT here?
A: 0.21 kcal/mol

Q: With AGTGTCACGTGAATGG as the sequence, how does the “relative binding free energy” value read?
A: 0.34 kcal/mol

Q: How did the “relative binding free energy” value turn out when GTAAGCACGTGTGGGG was run?
A: 0.04 kcal/mol

Q: TATGGCACGTGCGGAT was tested. Which “relative binding free energy” value did it give?
A: -0.11 kcal/mol

Q: How did the “relative binding free energy” value turn out when GTATTCACGTGGAGCG was run?
A: 0.19 kcal/mol

Q: For ATGTGCACGTGGTTGG, which “relative binding free energy” value is on record?
A: -0.05 kcal/mol

Q: Which “relative binding free energy” value does the source give for GGGTGCACGTGCGCGC here?
A: -0.15 kcal/mol

Q: With TGTAACACGTGACGGG as the sequence, how does the “relative binding free energy” value read?
A: 0.08 kcal/mol

Q: For TTTAACACGTGGGTGG, which “relative binding free energy” value is on record?
A: -0.14 kcal/mol

Q: How did the “relative binding free energy” value turn out when GTGGACACGTGTGGAC was run?
A: 0.07 kcal/mol

Q: For TAATACACGTGGGTGA, which “relative binding free energy” value is on record?
A: -0.16 kcal/mol

Q: GGTCACACGTGATTGG was tested. Which “relative binding free energy” value did it give?
A: 0.31 kcal/mol

Q: How did the “relative binding free energy” value turn out when GTCAGCACGTGTAGGG was run?
A: 0.02 kcal/mol

Q: Which “relative binding free energy” value does the source give for TTGGGCACGTGAGTCT here?
A: 0.18 kcal/mol

Q: For TGTGTCACGTGCATAT, which “relative binding free energy” value is on record?
A: 0.21 kcal/mol

Q: CGTGCCACGTGGGATT was tested. Which “relative binding free energy” value did it give?
A: -0.11 kcal/mol

Q: Which “relative binding free energy” value does the source give for TTTGGCACGTGCAGGG here?
A: -0.07 kcal/mol

Q: With TCTTACACGTGGGGTA as the sequence, how does the “relative binding free energy” value read?
A: -0.07 kcal/mol

Q: How did the “relative binding free energy” value turn out when TGTGTCACGTGCTATT was run?
A: -0.01 kcal/mol

Q: How did the “relative binding free energy” value turn out when TTGGCCACGTGTTGTT was run?
A: -0.04 kcal/mol

Q: With CGTATCACGTGAAGTG as the sequence, how does the “relative binding free energy” value read?
A: 0.25 kcal/mol

Q: With GTTTTCACGTGAAGAA as the sequence, how does the “relative binding free energy” value read?
A: 0.29 kcal/mol

Q: How did the “relative binding free energy” value turn out when GGTGGCACGTGAGACT was run?
A: 0.08 kcal/mol

Q: How did the “relative binding free energy” value turn out when ATGAGCACGTGAGGTA was run?
A: 0.13 kcal/mol

Q: Which “relative binding free energy” value does the source give for GATGACACGTGTTATT here?
A: 0.05 kcal/mol

Q: For ATATGCACGTGTTGGG, which “relative binding free energy” value is on record?
A: -0.07 kcal/mol

Q: How did the “relative binding free energy” value turn out when GTATGCACGTGCGATG was run?
A: 0.06 kcal/mol

Q: For CGGTTCACGTGATTCG, which “relative binding free energy” value is on record?
A: 0.49 kcal/mol

Q: For AGTAGCACGTGGGTTA, which “relative binding free energy” value is on record?
A: -0.15 kcal/mol

Q: How did the “relative binding free energy” value turn out when AGCGGCACGTGGGAGC was run?
A: -0.12 kcal/mol

Q: Which “relative binding free energy” value does the source give for ATCAGCACGTGTTATG here?
A: -0.03 kcal/mol

Q: How did the “relative binding free energy” value turn out when TCTTGCACGTGATTTG was run?
A: 0.06 kcal/mol

Q: ATTGGCACGTGCGTTA was tested. Which “relative binding free energy” value did it give?
A: -0.2 kcal/mol

Q: For AAGAACACGTGGTGTG, which “relative binding free energy” value is on record?
A: 0.09 kcal/mol

Q: GTCTTCACGTGATTTG was tested. Which “relative binding free energy” value did it give?
A: 0.46 kcal/mol

Q: For GGTCGCACGTGTGGTG, which “relative binding free energy” value is on record?
A: -0.03 kcal/mol
